# The supplement of paper PMC3334620
# In all, about 33,000 sequences were measured (“E-score (-0.5 to 0.5)”: median about -0.011, highest 2% from about 0.28 on). Some of the results follow.
# Biological target: T1, Gcr1 (UniProt P07261)
# T1 sequence: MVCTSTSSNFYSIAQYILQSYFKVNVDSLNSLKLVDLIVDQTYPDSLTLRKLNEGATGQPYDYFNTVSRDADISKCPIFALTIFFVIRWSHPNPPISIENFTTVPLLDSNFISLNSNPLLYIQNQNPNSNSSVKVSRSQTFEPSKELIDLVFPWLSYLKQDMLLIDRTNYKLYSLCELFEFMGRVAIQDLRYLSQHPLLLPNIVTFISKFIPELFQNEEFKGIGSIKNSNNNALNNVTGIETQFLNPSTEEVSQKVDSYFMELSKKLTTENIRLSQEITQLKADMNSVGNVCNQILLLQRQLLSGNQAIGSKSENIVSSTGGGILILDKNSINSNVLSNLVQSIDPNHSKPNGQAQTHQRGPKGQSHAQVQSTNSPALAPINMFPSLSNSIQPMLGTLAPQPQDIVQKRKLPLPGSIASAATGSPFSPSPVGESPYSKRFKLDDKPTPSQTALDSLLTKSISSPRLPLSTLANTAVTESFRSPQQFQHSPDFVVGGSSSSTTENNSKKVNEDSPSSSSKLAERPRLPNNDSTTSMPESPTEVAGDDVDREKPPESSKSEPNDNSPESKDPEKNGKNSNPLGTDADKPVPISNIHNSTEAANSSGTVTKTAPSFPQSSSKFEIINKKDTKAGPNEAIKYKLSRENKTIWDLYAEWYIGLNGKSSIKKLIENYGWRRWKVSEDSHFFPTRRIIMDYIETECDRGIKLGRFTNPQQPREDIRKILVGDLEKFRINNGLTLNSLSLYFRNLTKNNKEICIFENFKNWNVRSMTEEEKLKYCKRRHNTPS
# Assay: PBM E-score (8-mer binding enrichment) (E-score (-0.5 to 0.5)); higher = stronger / more preferred TF binding; most listed sequences are background and not binding sites
# Conditions: protein concentration: 100 nM; construct: GST-full length
# Procedure, shortened: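 Each ungapped eight-base word and its reverse complement, pooled, received an E-score from the Universal PBM Analysis Suite. Underlying scans, normalised with masliner, recorded fluorescent anti-GST bound to GST-tagged yeast transcription factors. These were applied at about 100-200 nM to universal all-10-mer Agilent arrays double-stranded by primer extension.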
row,Sequence,PBM E-score
1,ACTAACCC,0.103
2,GACGGAGA,-0.136
3,ATTGCCCA,-0.263
4,CTGAGAAG,-0.0411
5,CTGCCTTC,-0.103
6,GCTCACCC,0.0421
7,CTTACTAA,-0.112
8,GATGAGAC,-0.00642
9,CGGGTCAG,-0.078
10,CGCGAAAG,-0.0825
11,AGACCTAT,0.0452
12,CCTATTGA,0.00469
13,AAGCCCAT,0.0633
14,AACATCAT,-0.0707
15,AAGGCCAA,-0.218
16,CTCTGAGA,-0.0743
17,GACTCTTA,0.171
18,CCCTGAAC,0.0468
19,AACAAAAG,-0.054
20,GAGCTAGA,0.00673
21,CATCCAGC,0.198
22,CCATGGCC,-0.261
23,AGGCGTCC,0.387
24,GGCGGAAC,-0.096
25,ATAGCGCA,0.0425

row,Sequence,PBM E-score
1,CGTGTATA,0.0972
2,TACGATCA,-0.049
3,GCGCAAGA,0.123
4,ACAATCAT,-0.0418
5,AAGCGAAG,0.0415
6,ATGTCTTG,-0.339
7,AGTGAATG,-0.0265
8,CACCGTCA,-0.0141
9,GCGCGCTA,0.101
10,GTATCTCA,0.194
11,AGATTGCG,-0.0855
12,AAGGTCGA,-0.0525
13,GGTAGTAA,0.00084
14,GGTCGAAC,-0.163
15,CCGGGGCG,0.0378
16,CAATCGTG,-0.0722
17,CATCCACG,0.0306
18,ATTCTTTA,0.0537
19,GCCATGCA,-0.175
20,GCCGTAAA,0.141
21,CCACAACG,0.00921
22,TATCCGGA,0.161
23,AGATGACA,0.0907
24,TCATCTAA,-0.0664
25,GGAGAAAA,-0.127

row,Sequence,PBM E-score
1,AGTCATAA,0.0165
2,CTGGGAAA,-0.121
3,CAGAGCTG,-0.23
4,AATCAGAC,0.0464
5,TCAGAAGA,0.0181
6,ATGGCTGC,0.168
7,GTCTAGTA,-0.0488
8,ACTAGTTA,0.211
9,ACGGAACG,0.082
10,CCTAATAC,-0.0055
11,ACGACCGC,-0.124
12,CAGTGGCC,-0.0713
13,CCCCTTGC,-0.106
14,CTCCTGTA,0.236
15,CAAATAGC,-0.214
16,CGCAAACA,-0.19
17,CTTATAAA,0.291
18,ACGCCTGG,-0.0153
19,GTTTTTTA,0.029
20,CCATATCA,0.0892
21,CGACCCGC,-0.304
22,AGCTTCAT,0.0447
23,GTACCACA,0.157
24,CGGGCAAC,0.0558
25,CATAATAG,0.16

row,Sequence,PBM E-score
1,AAGCGAAT,0.0615
2,AACTTTAC,0.0985
3,ATGCACCA,-0.036
4,AGTCTTTC,-0.263
5,CCTCGGGA,-0.126
6,AACTACTC,0.0802
7,CACTCGGC,0.0205
8,GCTTCTCA,0.299
9,CCGGTAGG,0.0993
10,ATAAATGA,-0.119
11,CGCCTTTC,-0.0709
12,CGCGTCCA,0.245
13,GGATACCC,0.0354
14,AAGATGCA,0.0396
15,CCGAGTCC,-0.151
16,AATCCCAT,0.0407
17,GATCCCGC,0.186
18,CGAGATCG,-0.147
19,CCAGCGCC,0.232
20,AGACGAAA,-0.0121
21,TAATTGAA,0.228
22,GCGGCCTA,0.148
23,AAAATTAA,0.0776
24,CTTTCACA,-0.0812
25,AACAAGAG,0.0487

row,Sequence,PBM E-score
1,CATGCCAC,-0.109
2,AGCGGTCC,-0.0259
3,AATGCCTG,0.0531
4,TACGTGAA,0.0851
5,CTAAGGGA,-0.0207
6,CTACTCAG,-0.0129
7,AAAGCCGG,-0.101
8,CACTCGTC,0.00996
9,AGACATAT,-0.164
10,GTGATCCA,-0.0936
11,GAACTACA,-0.104
12,ACAAGTCT,0.0564
13,TATCGACA,0.102
14,CCCGACGG,-0.158
15,ATAAGTTC,0.0576
16,CATCACAA,0.0807
17,TATCGCCA,-0.0946
18,GAAGGGTC,-0.161
19,GCCCTTAA,0.0255
20,AGATAGTA,-0.0414
21,GGGAGCCA,0.387
22,CGACATCA,-0.00572
23,AGCGGCGC,0.116
24,GAATAACA,0.236
25,CTCTTAGC,-0.00339

row,Sequence,PBM E-score
1,ATGAACTC,0.0442
2,ATCAGTCA,0.0329
3,CAGTGCCA,-0.0969
4,ATCTAGAT,0.0364
5,ACAAGTCC,-0.16
6,AGGTTTGG,0.0372
7,GGCTTTAC,-0.152
8,ACCGGAGT,0.0988
9,GTGTACAA,0.035
10,GACCACTA,0.179
11,CTCTATGA,-0.226
12,AGGAGAAA,-0.114
13,AATAGACA,-0.116
14,AAATTGCG,0.0671
15,TCTTTTCA,0.02
16,GAACGGTC,-0.252
17,ACGCTCCC,0.138
18,AAGCCATA,0.161
19,AATACCAA,0.0734
20,GGATCAGA,0.0233
21,GATTAAGA,-0.0974
22,AACTAATC,0.014
23,GAGACGGC,-0.158
24,CGGCACCA,0.245
25,CTATGTAC,-0.164

row,Sequence,PBM E-score
1,AACTGACA,0.0772
2,GAAGCTTA,0.136
3,AATATATC,-0.0422
4,ATTACCAC,-0.0241
5,AGGAAAAT,-0.0988
6,TAGGCTAA,0.0133
7,GTAGTGAA,0.0593
8,CCAGCACA,-0.106
9,CGCTCCGC,0.0826
10,AACCAAAA,0.188
11,CAGTTCAA,-0.013
12,ACCCAGGA,0.178
13,ATTTCTAG,0.0309
14,CCCACATA,-0.0268
15,TCTTTGAA,0.189
16,CACTATCA,0.142
17,GAACAAAA,0.109
18,AGAGGTAT,0.196
19,ACGGTTAA,-0.034
20,ATGATCGG,-0.0394
21,GTGTATGA,0.0561
22,ATTTATGA,0.085
23,ATCCTTTA,0.225
24,AATCTGCA,-0.0124
25,CACAAGTG,-0.0266

row,Sequence,PBM E-score
1,CACGCGAA,-0.0166
2,GAAGGATA,-0.14
3,ACAGGCGC,0.0503
4,AGCAGAAG,0.0734
5,GACGTAAC,-0.0765
6,AGATTGAC,-0.103
7,GTGTAGGA,0.0669
8,CGTTTGAC,-0.114
9,AAATTATC,0.13
10,CCGCGAGA,-0.16
11,CGAGTCAC,-0.0808
12,GCGGGTTA,0.00542
13,TCGTATCA,0.155
14,GAGCGCAA,-0.124
15,ATTCGGCA,0.043
16,CATCAAGC,-0.0889
17,AGTCCAGC,0.00398
18,AATCCTAC,0.0255
19,ATTGGGTC,0.126
20,GTTGAGTA,-0.0516
21,CTAGCTAA,-0.124
22,ACCGCTCG,-0.00838
23,ATTTCTAA,-0.207
24,AGCGCGAC,0.0874
25,CCCAGAAC,0.0712

row,Sequence,PBM E-score
1,CCATAACA,-0.0834
2,AGTCTTAA,-0.236
3,AGTCCCAA,0.00793
4,CGGAGTTC,-0.0447
5,AATTGTGA,0.0584
6,CGAGGTTC,0.0985
7,AGGTTACC,0.113
8,ATGAAACC,0.164
9,AACCTTTG,-0.139
10,GGTTAACC,-0.194
11,AAGCGTCA,-0.0114
12,GGCCGCCC,0.117
13,CGATTCCA,0.178
14,AACATTCC,-0.13
15,CTAACCCA,-0.0302
16,CTTTAGGA,0.249
17,TGTTGAAA,-0.0142
18,CGGCCCCC,0.0724
19,ATCAGCTC,-0.0564
